Source: the supplement of paper PMC12217912
This is one part of the list. Sequences were assembled here from the parent chain. Values near 0.05 are background.

B1: TEV protease; numbered along this chain (parent)
chain: MGESLFKGPRDYNPISSSICHLTNESDGHTTSLYGIGFGPFIITNKHLFRRNNGTLVVQSLHGVFKVKDTTTLQQHLVDGRDMIIIRMPKDFPPFPQKLKFREPQREERICLVTTNFQTKSMSSMVSDTSCTFPSGDGIFWKHWIQTKDGQCGSPLVSTRDGFIVGIHSASNFTNTNNYFTSVPKNFMELLTNQEAQQWVSGWRLNADSVLWGGHKVFMVKPEEPFQPVKEATQL

Variants of: B1
Experiment: raw area under fraction-flipped curve 0-4 h after induction (AUC4h, not background-subtracted), DNA-recorder readout of cleavage of the substrate (dimensionless); higher = more cleavage of the substrate by the protease variant
Details: temperature: 34 °C; time window: 0-4 h after rhamnose induction
Method: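 In vivo DNA recorder in E. coli TOP10(DE3) ΔrhaA at 34 °C. Each TEVp single-site mutant (parent TEVp 0) is paired with a single-site variant of the 7-mer TEVs (canonical ENLYFQ|S). The substrate sits between flexible linkers in a Bxb1-sfGFP-TEVs-SsrA fusion, so cleavage stabilises Bxb1 and speeds flipping of a recombination array, read by NGS. The value is the raw area under the fraction-flipped curve over 0-4 h after rhamnose induction (AUC4h), with ≥20 reads per time point. It is not background-subtracted; inactive controls average about 0.047.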
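Note: Bxb1 expression induced with 0.2% (w/v) L-rhamnose at OD600 near 0.5, cultures sampled hourly, flipped fraction per protease–substrate barcode pair counted by paired-end Illumina sequencing.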

Row | Variant | area with substrate ENLEFQS | area with substrate ENLIFQS | area with substrate ENLQFQS | area with substrate ENLSFQS | area with substrate ENLHFQS | area with substrate ENLKFQS | area with substrate ENLNFQS | area with substrate ENLPFQS | area with substrate ENLVFQS | area with substrate ENLFFQS
1 | MGESLFKGPRDYNPISSSICHLTNESDGHTTSLYGIGFGPFIITNKHLFRRNNGTLVVQSLHGVFKVKDTTTLQQHLVDGRDMIIIRMPKDFPPFPQKLKFREPQREERICLVTTNFQTKSMSSMVSDTSCTFPSGDLIFWKHWIQTKDGQCGSPLVSTRDGFIVGIHSASNFTNTNNYFTSVPKNFMELLTNQEAQQWVSGWRLNADSVLWGGHKVFMVKPEEPFQPVKEATQL [G138L] | 0.0493 | 0.0698 | 0.0425 | 0.0698 | – | – | – | – | – | –
2 | MGESLFKGPRDYNPISSSICHLTNESDGHTTSLYGIGFGPFIITNKHLFRRNNGTLVVQSLHGVFKVKDTTTLQQHLVDGRDMIIIRMPKDFPPFPQKLKFREPQREERICLVTTNFQTKSMSSMVSDTSCTFPSGDGIFWKHWIQTKDGQCGSPLVSKRDGFIVGIHSASNFTNTNNYFTSVPKNFMELLTNQEAQQWVSGWRLNADSVLWGGHKVFMVKPEEPFQPVKEATQL [T159K] | 0.0693 | 0.0505 | – | – | 0.0744 | 0.0722 | 0.071 | 0.0643 | 0.117 | –
3 | MGESLFKGPRDYNPISSSICHLTNESDGHTTSLYGIGFGPFIITNKHLFRRNNGTLVVQSLHGVFKVKDTTTLQQHLVDGRDMIIIRMPKDFPPFPQKLKFREPQREERICLVTTNFQTKSMSSMVSDTSCTFPSGDGIFWKHWIQTKDGQCGSPLVSTRDVFIVGIHSASNFTNTNNYFTSVPKNFMELLTNQEAQQWVSGWRLNADSVLWGGHKVFMVKPEEPFQPVKEATQL [G162V] | 0.0627 | 0.087 | 0.059 | 0.0655 | – | – | – | – | – | 0.0713
4 | MGESLFKGPRDYNPISSSICHLTNESDGHTTSLYGIGFGPFIITNKHLFRRNNGTLVVQSLHGVFKVKDTTTLQQHLVDGRDMIIIRMPKDFPPFPQKLKFREPQREERICLVTTNFQTKSMSSMVSDTSCTFPSGDGIFWKHWIQTKDGQCGSPLVSTRDGFIVGIHSRSNFTNTNNYFTSVPKNFMELLTNQEAQQWVSGWRLNADSVLWGGHKVFMVKPEEPFQPVKEATQL [A170R] | 0.0391 | 0.0575 | – | – | 0.0584 | – | – | – | – | 0.0615
5 | MGESLFKGPRDYNPISSSICHLTNESDGHTTSLYGIGFGPFIITNKHLFRRNNGTLVVQSLHGVFKVKDTTTLQQHLVDGRDMIIIRMPKDFPPFPQKLKFREPQREERICLVTTNFQTKSMSSMVSDTSCTFPSGDGIFWKHWIQTKDGQCGSPLVSTRDGFIVGIHSASAFTNTNNYFTSVPKNFMELLTNQEAQQWVSGWRLNADSVLWGGHKVFMVKPEEPFQPVKEATQL [N172A] | 0.0584 | – | – | – | – | 0.0574 | – | – | – | –
6 | MGESLFKGPRDYNPISSSICHLTNESDGHTTSLYGIGFGPFIITNKHLFRRNNGTLVVQSLHGVFKVKDTTTLQQHLVDGRDMIIIRMPKDFPPFPQKLKFREPQREERICLVTTNFQTKSMSSMVSDTSCTFPSGDGIFWKHWIQTKDGQCGSPLVSTRDGFIVGIHSASNFTNTNNYFVSVPKNFMELLTNQEAQQWVSGWRLNADSVLWGGHKVFMVKPEEPFQPVKEATQL [T181V] | 0.0476 | – | 0.062 | 0.0555 | 0.0821 | – | 0.0755 | – | 0.0562 | –
7 | MGESLFKGPRDYNPISSSICHLTNESDGHTTSLYGIGFGPFIITNKHLFRRNNGTLVVQSLHGVFKVKDTTTLQQHLVDGRDMIIIRMPKDFPPFPQKLKFREPQREERICLVTTNFQTKSMSSMVSDTSCTFPSGDGIFWKHWIQTKDGQCGSPLVSTRDGFIVGIHSASNFTNTNNYFTSVPKNFMENLTNQEAQQWVSGWRLNADSVLWGGHKVFMVKPEEPFQPVKEATQL [L190N] | 0.0363 | – | – | – | 0.065 | 0.0727 | 0.0772 | – | – | 0.0846
8 | MGESLFKGPRDYNPISSSICHLTNESDGHTTSLYGIGFGPFIITNKHLFRRNNGTLVVQSLHGVFKVKDTTTLQQHLVDGRDMIIIRMPKDFPPFPQKLKFREPQREERICLVTTNFQTKSMSSMVSDTSCTFPSGDGIFWKHWIQTKDGQCGSPLVSTRDGFIVGIHSASNFTNTNNYFTSVPKNFMEPLTNQEAQQWVSGWRLNADSVLWGGHKVFMVKPEEPFQPVKEATQL [L190P] | 0.0616 | – | – | – | 0.0536 | 0.0734 | – | – | – | –
9 | MGESLFKGPRDYNPISSSICHLTNESDGHTTSLYGIGFGPFIITNKHLFRRNNGTLVVQSLHGVFKVKDTTTLQQHLVDGRDMIIIRMPKDFPPFPQKLKFREPQREERICLVTTNFQTKSMSSMVSDTSCTFPSGDGIFWKHWIQTKDGQCGSPLVSTRDGFIVGIHSASNFTNTNNYFTSVPKNFMELLTYQEAQQWVSGWRLNADSVLWGGHKVFMVKPEEPFQPVKEATQL [N193Y] | 0.0889 | – | – | – | 0.0545 | – | – | – | 0.0641 | 0.0639
10 | MGESLFKGPRDYNPISSSICHLTNESDGHTTSLYGIGFGPFIITNKHLFRRNNGTLVVQSLHGVFKVKDTTTLQQHLVDGRDMIIIRMPKDFPPFPQKLKFREPQREERICLVTTNFQTKSMSSMVSDTSCTFPSGDGIFWKHWIQTKDGQCGSPLVSTRDGFIVGIHSASNFTNTNNYFTSVPKNFMELLTNQEAQGWVSGWRLNADSVLWGGHKVFMVKPEEPFQPVKEATQL [Q198G] | 0.0743 | – | 0.0694 | – | – | 0.0882 | 0.0721 | 0.0498 | 0.084 | 0.0802
11 | MGESLFKGPRDYNPISSSICHLTNESDGHTTSLYGIGFGPFIITNKHLFRRNNGTLVVQSLHGVFKVKDTTTLQQHLVDGRDMIIIRMPKDFPPFPQKLKFREPQREERICLVTTNFQTKSMSSMVSDTSCTFPSGDGIFWKHWIQTKDGQCGSPLVSTRDGFIVGIHSASNFTNTNNYFTSVPKNFMELLTNQEAQQWVSGWRLNADSVIWGGHKVFMVKPEEPFQPVKEATQL [L211I] | 0.0665 | – | – | – | 0.0813 | 0.0842 | – | – | – | –

Same assay, conditions: temperature: 34 °C; time window: 0-4 h after rhamnose induction

Row | Variant | area with substrate ENLRFQS | area with substrate ENLWFQS | area with substrate ENLGFQS | area with substrate ENLLFQS | area with substrate ENLMFQS
12 | MGESLFKGPRDYNPISSSICHLTNESDGHTTSLYGIGFGPFIITNKHLFRRNNGTLVVQSLHGVFKVKDTTTLQQHLVDGRDMIIIRMPKDFPPFPQKLKFREPQREERICLVTTNFQTKSMSSMVSDTSCTFPSGDGIFWKHWIQTKDGQCGSPLVSTRDVFIVGIHSASNFTNTNNYFTSVPKNFMELLTNQEAQQWVSGWRLNADSVLWGGHKVFMVKPEEPFQPVKEATQL [G162V] | 0.0582 | 0.046 | – | – | –
13 | MGESLFKGPRDYNPISSSICHLTNESDGHTTSLYGIGFGPFIITNKHLFRRNNGTLVVQSLHGVFKVKDTTTLQQHLVDGRDMIIIRMPKDFPPFPQKLKFREPQREERICLVTTNFQTKSMSSMVSDTSCTFPSGDGIFWKHWIQTKDGQCGSPLVSTRDGFIVGIHSRSNFTNTNNYFTSVPKNFMELLTNQEAQQWVSGWRLNADSVLWGGHKVFMVKPEEPFQPVKEATQL [A170R] | – | 0.0479 | – | – | –
14 | MGESLFKGPRDYNPISSSICHLTNESDGHTTSLYGIGFGPFIITNKHLFRRNNGTLVVQSLHGVFKVKDTTTLQQHLVDGRDMIIIRMPKDFPPFPQKLKFREPQREERICLVTTNFQTKSMSSMVSDTSCTFPSGDGIFWKHWIQTKDGQCGSPLVSTRDGFIVGIHSASNFTNTNNYFVSVPKNFMELLTNQEAQQWVSGWRLNADSVLWGGHKVFMVKPEEPFQPVKEATQL [T181V] | – | – | 0.0694 | 0.0585 | –
15 | MGESLFKGPRDYNPISSSICHLTNESDGHTTSLYGIGFGPFIITNKHLFRRNNGTLVVQSLHGVFKVKDTTTLQQHLVDGRDMIIIRMPKDFPPFPQKLKFREPQREERICLVTTNFQTKSMSSMVSDTSCTFPSGDGIFWKHWIQTKDGQCGSPLVSTRDGFIVGIHSASNFTNTNNYFTSVPKNFMENLTNQEAQQWVSGWRLNADSVLWGGHKVFMVKPEEPFQPVKEATQL [L190N] | – | 0.0391 | – | – | –
16 | MGESLFKGPRDYNPISSSICHLTNESDGHTTSLYGIGFGPFIITNKHLFRRNNGTLVVQSLHGVFKVKDTTTLQQHLVDGRDMIIIRMPKDFPPFPQKLKFREPQREERICLVTTNFQTKSMSSMVSDTSCTFPSGDGIFWKHWIQTKDGQCGSPLVSTRDGFIVGIHSASNFTNTNNYFTSVPKNFMEPLTNQEAQQWVSGWRLNADSVLWGGHKVFMVKPEEPFQPVKEATQL [L190P] | – | – | 0.113 | – | –
17 | MGESLFKGPRDYNPISSSICHLTNESDGHTTSLYGIGFGPFIITNKHLFRRNNGTLVVQSLHGVFKVKDTTTLQQHLVDGRDMIIIRMPKDFPPFPQKLKFREPQREERICLVTTNFQTKSMSSMVSDTSCTFPSGDGIFWKHWIQTKDGQCGSPLVSTRDGFIVGIHSASNFTNTNNYFTSVPKNFMELLTYQEAQQWVSGWRLNADSVLWGGHKVFMVKPEEPFQPVKEATQL [N193Y] | – | 0.0715 | – | 0.0624 | –
18 | MGESLFKGPRDYNPISSSICHLTNESDGHTTSLYGIGFGPFIITNKHLFRRNNGTLVVQSLHGVFKVKDTTTLQQHLVDGRDMIIIRMPKDFPPFPQKLKFREPQREERICLVTTNFQTKSMSSMVSDTSCTFPSGDGIFWKHWIQTKDGQCGSPLVSTRDGFIVGIHSASNFTNTNNYFTSVPKNFMELLTNQEAQGWVSGWRLNADSVLWGGHKVFMVKPEEPFQPVKEATQL [Q198G] | 0.0702 | – | – | – | –
19 | MGESLFKGPRDYNPISSSICHLTNESDGHTTSLYGIGFGPFIITNKHLFRRNNGTLVVQSLHGVFKVKDTTTLQQHLVDGRDMIIIRMPKDFPPFPQKLKFREPQREERICLVTTNFQTKSMSSMVSDTSCTFPSGDGIFWKHWIQTKDGQCGSPLVSTRDGFIVGIHSASNFTNTNNYFTSVPKNFMELLTNQEAQQWVSGWRLNADSVIWGGHKVFMVKPEEPFQPVKEATQL [L211I] | – | – | – | – | 0.0756
